Test results as given in publication PMC6919601, “Identification of Plasmodium dipeptidyl aminopeptidase allosteric inhibitors by high throughput screening” (PLoS ONE, 2019).
Among all 110,000 compounds or so, about 230 (0.21%) showed an effect of 50% or more. Some of the results follow.

biological target: DPAP1 (Plasmodium falciparum, UniProt Q8IIJ9); experiment: primary screen, percent inhibition; read by cleavage of a fluorogenic dipeptide substrate; higher = more effect of the substance; set-up: species or system P. falciparum D10 trophozoite lysates; single well
Sequence (Q8IIJ9 whole entry, looked up): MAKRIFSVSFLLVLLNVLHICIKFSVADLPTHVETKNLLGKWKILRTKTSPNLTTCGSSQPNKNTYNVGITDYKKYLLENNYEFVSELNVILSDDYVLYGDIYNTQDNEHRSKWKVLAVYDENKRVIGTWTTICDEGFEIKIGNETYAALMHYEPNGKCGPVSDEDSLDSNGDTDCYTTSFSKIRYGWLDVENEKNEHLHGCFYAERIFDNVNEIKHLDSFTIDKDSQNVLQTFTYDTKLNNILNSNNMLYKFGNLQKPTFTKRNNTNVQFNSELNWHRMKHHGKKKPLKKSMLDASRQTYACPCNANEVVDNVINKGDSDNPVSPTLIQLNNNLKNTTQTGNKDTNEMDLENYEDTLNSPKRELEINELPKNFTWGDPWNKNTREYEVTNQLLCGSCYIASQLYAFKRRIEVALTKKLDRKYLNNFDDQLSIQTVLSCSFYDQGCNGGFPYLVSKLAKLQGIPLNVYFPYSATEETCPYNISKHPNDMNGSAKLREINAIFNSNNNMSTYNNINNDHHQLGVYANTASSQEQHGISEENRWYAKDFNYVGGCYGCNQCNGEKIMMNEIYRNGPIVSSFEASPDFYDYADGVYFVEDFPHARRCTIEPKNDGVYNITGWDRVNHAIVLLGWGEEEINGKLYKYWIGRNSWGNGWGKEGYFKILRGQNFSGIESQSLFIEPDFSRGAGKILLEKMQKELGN
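Further: 30 min substrate incubation versus DMSO and 10 µM JCP410 controls.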

| Structure (SMILES) | % Inhibition @ 10 uM [%] |
| --- | --- |
| Cc1ccc(CNC(=O)c2cc3c(s2)CSC3)cc1 | 0.44 |
| COc1ccc(Br)cc1/C=C1\N=C(c2ccc(Br)cc2)OC1=O | 0.78 |
| O=c1[nH]/c(=C/c2ccc(Cl)cc2Cl)c(=O)[nH]/c1=C/c1ccc(Cl)cc1Cl | 2.55 |
| COc1ccc(S(=O)(=O)Nc2cncc(C(=O)N3CCN(Cc4ccccc4)CC3)c2)cc1 | -10.2 |
| CC1=C(C(=O)Nc2ccccc2)C(c2ccc(C(C)C)cc2)N2C(=O)CSC2=N1 (stereo not drawn) | 3.69 |
| COc1ccc(NC(=O)c2sc3nc(C)c(Cl)c(C)c3c2N)cc1 | -5.13 |
| Cc1noc(C)c1S(=O)(=O)N1CCC(C(=O)N2CCN(Cc3ccccc3)CC2)CC1 | -1.55 |
| O=C(CCCc1nnc2n3nc(-c4ccccc4)nc3c3ccccc3n12)NCc1ccc(F)cc1 | -2.92 |
| O=C(NCc1ccc(Cl)cc1)C(=O)Nc1ccc(F)cc1 | -7.02 |
| O=C(O)COCC(=O)Nc1nncs1 | -1.11 |
| COc1cc2nc(SCC(=O)NCc3ccco3)n3nc(-c4ccccc4)nc3c2cc1OC | 2.9 |
| CCOC(=O)c1sc(N)nc1-c1ccc([N+](=O)[O-])cc1 | 23.9 |
| O=C(CN1C(=O)S/C(=C/c2cccc(Br)c2)C1=O)N1CCOCC1 | -1.61 |
| COc1ccccc1-c1cc(C(=O)NC(C)c2ccccc2)no1 (stereo not drawn) | 2.01 |
| CCCCNc1ncnc2c1nc1n2CCCCC1 | -0.0255 |
| COc1cccc2c(O)c(CC=C(Cl)Cl)c(C)nc12 | -3.09 |
| CCCN(CCC)S(=O)(=O)c1ccc(C(=O)N2CCOCC2)cc1 | 5.16 |
| CC(=O)OC(COCCC12CC3CC(CC(C3)C1)C2)CN1CCOCC1 (stereo not drawn) | -0.233 |
| CC1CC(C)CN(C(=O)C2CCC(CNS(=O)(=O)c3cccc4cccnc34)CC2)C1 (stereo not drawn) | 5.68 |
| O=C1/C(=C/c2ccc(Br)s2)Cc2ccccc21 | 6.2 |
| CCC(C)NC(=O)c1ccc(N(C)C)cc1 (stereo not drawn) | -8.46 |

| Structure (SMILES) | % Inhibition @ 10 uM [%] |
| --- | --- |
| CCS(=O)(=O)N1CCN(C(=O)COc2ccc(C)cc2)CC1 | 3.79 |
| O=C(Nc1ccc(/C=C/c2ccccc2)cc1)c1ccccc1F | -2.59 |
| Cc1ccc(S(=O)(=O)c2cc3c(=O)n4cc(C)ccc4nc3n(C3CCCC3)c2=N)cc1 | 1.57 |
| Cc1ccc(NS(=O)(=O)c2ccc(NC(=O)COc3ccccc3C)cc2)c(C)c1 | -3.41 |
| CC1(C)OC(=O)N(CCc2c[nH]c3c(C(F)(F)F)cccc23)C1(C)O (stereo not drawn) | -3.34 |
| N#C/C(=C\c1ccccc1[N+](=O)[O-])c1nc(C2CC2)cs1 | -0.591 |
| CCOc1ccc(CCNCc2c(C(=O)O)[nH]c3cc(C)ccc23)cc1OCC | 1.8 |
| CNC(=O)C(C)n1nc(C)c2sc3ccccc3c2c1=O (stereo not drawn) | -7.17 |
| COCCn1c(CN2CCN(Cc3ccccc3)CC2)nc2c1c(=O)n(C)c(=O)n2C | 3.63 |
| O=C(O)c1ccccc1SCN1C(=O)c2ccccc2C1=O | -1.12 |
| O=C(CN1C(=O)C2C3c4ccccc4C(c4ccccc43)C2C1=O)Nc1ccccc1C(=O)O (stereo not drawn) | -1.65 |
| C=CCN1CCN(c2ccncc2S(=O)(=O)N(C)C)CC1 | 1.72 |
| CC1(c2ccc(Br)cc2)CC(c2ccc(Br)cc2)=Nc2ccccc2N1 (stereo not drawn) | 4.08 |
| COc1cc(C)c(-c2[nH]nc(C)c2Oc2ccccc2)c(O)c1 | -5.69 |
| CCc1ccc(OCC(=O)NC(C)(C)C)c(Br)c1 | -4.43 |
| COc1ccc(CCNC(=O)[C@@H](c2ccccc2)N2Cc3ccccc3C2=O)cc1OC | 1.26 |
| COc1cccc2cc(C(=O)N3CCc4ccccc4C3)c(=O)oc12 | 0.484 |
| COc1cc2c(cc1OC)CN(C(=O)c1ccc(CNS(=O)(=O)c3cc(C)ccc3C)cc1)CC2 | -4.97 |
| CC(=O)N1CCN(Cc2cccc(F)c2)CC1 | 1.26 |
| O=C(CN1C(=O)CSc2ncccc21)NCCc1ccc(Cl)cc1 | -6.01 |
| CNC(=O)c1c(-c2ccccc2Cl)noc1C | 1.88 |

| Structure (SMILES) | % Inhibition @ 10 uM [%] |
| --- | --- |
| CCOC(=O)c1c(C)n(C)c2ccc(OCC(O)CNCC3CCCO3)cc12 (stereo not drawn) | -6.94 |
| CCN1CCN(C2CC3CCC2C3)CC1 (stereo not drawn) | 1.57 |
| Fc1ccccc1CN1CCN(C/C=C/c2ccccc2)CC1 | 1.4 |
| Cc1ccc(CN(C)C2CCN(C)CC2)o1 | -2.34 |
| COc1ccc(C(=O)c2cn(-c3cccc(Br)c3)nc2C(C)=O)cc1 | -1.98 |
| CCc1ccc(C2N3CC4(CC)CN2CC(CC)(C3)C4=O)cc1 (stereo not drawn) | -1.71 |
| COc1ccc(-c2cc(C(=O)Nc3nc4ccc(S(C)(=O)=O)cc4s3)c3ccccc3n2)cc1 | 0.64 |
| CC(C)C[C@H](NC(=O)c1ccc(O)c(C(C)(C)C)c1)C(=O)NCC#N | -6.98 |
| CC(C)C[C@H](NC(=O)c1cc2ccccc2cn1)C(=O)NCC#N | 5.05 |
| COC(=O)C1=C(C)NC(=O)/C1=C\c1ccc(Cl)cc1 | -9.9 |
| COC(=O)c1sccc1NC(=O)Cn1ncc2c3ccccc3nc-2c1O | 2.13 |
| C#CCN1C(=O)S/C(=C\c2cc(OC)c(N3CCCC3)cc2OC)C1=O | 3.35 |
| Cc1sc(NC(=O)Cn2nc(C(F)(F)F)cc2C)c(C#N)c1C | 0.385 |
| CCOc1ccc(/C=C(\NC(=O)c2ccc(C)cc2)C(=O)Nc2cccc(O)c2)cc1 | 4.67 |
| CCOc1cc(C2C(C#N)=C(N)Oc3ccc4ccccc4c32)ccc1O (stereo not drawn) | -4.03 |
| Cc1cc(C)c2nc(N3CCC(C(=O)N4CCN(c5ccccn5)CC4)CC3)sc2c1 | 3.4 |
| COCc1[nH]nc2c1C(c1ccnc3ccccc13)C(C#N)=C(N)O2 (stereo not drawn) | -0.68 |
| COC(=O)c1cc(S(=O)(=O)NCCN(Cc2ccco2)C2CCCC2)cn1C | -0.658 |
| COc1cc(CN2CCN(Cc3cccc(Br)c3)CC2)cc(OC)c1OC | 9.41 |
| CC12CN3CC(C)(CN(C1)C3c1ccc(O)cc1)C2O (stereo not drawn) | 2.1 |
| CCOC(=O)N1CCN(S(=O)(=O)c2ccc3c(c2)OCCO3)CC1 | -9.83 |
